# Test results from paper PMC10668032.
# The list shows a part of the results. At the low end of the ranking the order means little.
# Target: SIX1-Q177R homeodomain (UniProt Q15475)
# Assay: universal protein binding microarray
# Details: Universal all-10-mer PBM (8x60K, AMADID 030236), 300 nM GST-tagged protein, Alexa Fluor 488 anti-GST; buffer, salt, pH and temperature not stated; high values mean tight binding; most listed sequences are background and not binding sites; double strand, one strand shown
row,Sequence,binding signal [E-score]
1,AACATATC,-0.00863
2,CTTATACA,0.0531
3,GTATTGAA,0.0724
4,AGTACTTC,-0.17
5,ATTGAATC,-0.175
6,AACACCTG,0.445
7,CGTCGAAG,-0.191
8,AGGCTCAT,-0.113
9,GCCCCCCA,-0.0772
10,AAGCCATC,-0.153
11,ACCTAAGC,0.0688
12,AATCTGAA,-0.176
13,ACTAAATA,-0.01
14,ACTGCCCA,0.0497
15,AAAACACA,0.188
16,AACAATCT,-0.196
17,CCTACAAA,0.00881
18,GTCAGCGA,-0.146
19,ACCGTACC,0.125
20,AACGGCTC,-0.101
21,CAATCGAA,-0.117
22,ATTGGCCA,-0.0169
23,ATGTAAAC,0.0561
24,ACATTGAT,-0.104

row,Sequence,binding signal [E-score]
1,CTGCCGCC,-0.0445
2,GATCAAGC,0.0656
3,AAATATGT,-0.0304
4,TATATAAA,-0.111
5,AAGATTTA,-0.0129
6,CCCACCGA,-0.00518
7,AGATCACA,0.0681
8,ACGCAGTA,-0.0424
9,AAGAAGGG,0.0114
10,ATCAATGC,-0.269
11,CATGTGAA,-0.182
12,GCACGGTA,0.165
13,CTTGGCGA,-0.0813
14,AAACGAGG,-0.0939
15,ATTTGATG,-0.149
16,CCAAATCA,-0.0398
17,AGCGACCA,-0.112
18,CTGTTCGC,0.00161
19,ATAGGTAG,-0.158
20,GATCAAAC,-0.0659
21,CCCTGTAC,0.173
22,AAAGGTAT,0.147
23,ACTGGCAT,-0.0661
24,CCAGGAAC,-0.00204

row,Sequence,binding signal [E-score]
1,CCAATATC,0.0301
2,AAGATTAG,-0.275
3,ACAACGCA,-0.0627
4,ATTGGGCC,-0.313
5,AAGCTTAA,-0.0635
6,AGCGTTAG,-0.0286
7,ATCCAGGC,-0.0874
8,ACGCCCGC,0.0389
9,ACTTTGGA,-0.0529
10,AAGGTCCG,0.00919
11,ATTGAGGG,0.00442
12,GAATGTCA,-0.197
13,GTGCACAC,0.271
14,CAGGGAGA,-0.0511
15,AAGCCTCA,-0.196
16,GTTCATAA,-0.178
17,ATCACATA,0.0612
18,GAGACTCC,0.14
19,ATCTCGGA,-0.0811
20,CAATTTTC,-0.126
21,ACAGTCGC,-0.0349
22,TATTTGCA,-0.276
23,ATTTCTAA,-0.166
24,CTTAGTCC,-0.26

row,Sequence,binding signal [E-score]
1,AAGGACCA,-0.089
2,AAGACGGG,-0.0964
3,ACTGCGGC,-0.22
4,TTCTGAAA,-0.166
5,AACTTTCA,-0.113
6,CAGTTTTC,-0.108
7,CAATGACA,0.198
8,TGACGCCA,0.178
9,GATCAATA,-0.196
10,AAGCCGAT,-0.161
11,ACTCCCTG,0.163
12,GGACCTCC,-0.179
13,CTAGAGTC,-0.13
14,AATGTCGA,-0.18
15,CACAAGCA,0.107
16,CTGTCCAC,-0.199
17,GGCGATCA,-0.118
18,GCGACGAA,-0.196
19,AATAAAGA,0.126
20,CTCGCCCA,0.0836
21,AGTGGTAG,0.157
22,CTGATCGA,-0.183
